Data on 94 sequences can be found in the supplement of paper PMC4466236.

In all, about 33,000 sequences were measured (“E-score (dimensionless, -0.5 to 0.5)”: median about -0.058, highest 2% from about 0.35 on). The list shows a part of the results.

The subject of this assay is MvaT. The experiment in a line: PBM 8-mer E-score (mean of HK and ME arrays) (E-score (dimensionless, -0.5 to 0.5)); higher = stronger relative binding preference; most listed sequences are background and not binding sites. On the procedure:
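Protein binding microarray: GST-tagged full-length MvaT (P. aeruginosa PAO1) bound to two universal double-stranded 60-mer arrays (ME and HK), each with a constant 25-mer primer and a variable 35-mer region covering all 8-mers. The 8-mer E-score (rank-based, range -0.5 to 0.5, >0.45 = specific binding) is the mean of the two arrays.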
For GATTATTA, the “PBM 8-mer E-score” value stood at 0.391.
With AATTTAGA the figure was 0.183.
With AAGATTAT the figure was 0.286; with TCCCTTAA, 0.0713.
On to GTTGCAGA, for which the “PBM 8-mer E-score” value is -0.0379.
For the sequence TTCTACAA, the “PBM 8-mer E-score” value was 0.142.
In the case of AAATATGC it was 0.305; in that of GAATGGAC, -0.184.
With CCGTATTA the figure was 0.121.
In the case of TAGGTATA it was 0.193.
As for GGTGGCTA, the “PBM 8-mer E-score” value is -0.11.
As to TCCGCCCA, the “PBM 8-mer E-score” value is -0.123.
In the case of AAATCCCA it was 0.0842; in that of CCAACCGC, -0.0513; in that of AGTATCTA, 0.18.
With CCTTAGGC the figure was -0.189; with AGTGTGCG, -0.0111; with ATTCGTCA, 0.0938.
In the case of ACCCTGAC it was -0.231; in that of GGATCTGA, -0.13; in that of CAATGGGA, -0.00579.
Turning to ATGGTATC, the “PBM 8-mer E-score” value is -0.0093.
With GTTATTGA the figure was 0.311; with ATGGTGTC, -0.0135; with ACGATTCC, -0.0656.
In the case of GGGAAGTA it was 0.0498.
Turning to TCCCCGAA, the “PBM 8-mer E-score” value was -0.195.
In the case of GGTCCTAA it was -0.114; in that of CGCCTAGA, -0.183; in that of CATAGGCA, -0.0952.
In the case of GTCACTTA it was -0.00887; in that of ATGGGCCG, -0.236.
In the case of GACGCATC it was -0.259; in that of CCGCTGTA, -0.229; in that of CGCCCACG, -0.225.
Take CAATCGCA: the “PBM 8-mer E-score” value was -0.0362.
Regarding ACGACTCA, the “PBM 8-mer E-score” value was -0.0313.
As to AAGAGGTC, the “PBM 8-mer E-score” value is -0.209.
With GCCGTTAA the figure was 0.107.
With ACAGCCTA the figure was -0.0691; with ATCAACTG, -0.0168; with CAGGAGAC, -0.135.
With GCATCCTA the figure was -0.116.
Take ACATAGCG: the “PBM 8-mer E-score” value is -0.0518.
Regarding CTTTGCAC, the “PBM 8-mer E-score” value was 0.0726.
ACCGCACG: the “PBM 8-mer E-score” value is -0.111.
With ACTCGCAC the figure was -0.0164; with ATATAGTG, 0.329.
With GAAGAGCC the figure was -0.193; with AGTCCGTA, -0.00293.
In the case of CCCCTATC it was -0.225.
Turning to AGGTCATC, the “PBM 8-mer E-score” value was -0.299.
Take GCCCCAAC: the “PBM 8-mer E-score” value is -0.164.
With CCCGTCGG the figure was -0.203; with GTTCACTA, 0.0607.
With CAATTGCG the figure was 0.183; with AATGTTCC, 0.0873; with CTCGTTCA, -0.139.
In the case of CTTAAATC it was 0.0452; in that of TCAAGTAA, 0.206; in that of GCGTTCAA, -0.0793.
In the case of ATAAGCCG, the “PBM 8-mer E-score” value was determined as 0.0875.
In the case of ACAATTAT it was 0.378; in that of ATTTGTGG, 0.0909.
As to ACCAGACT, the “PBM 8-mer E-score” value was -0.212.
With ACGAAGTG the figure was -0.0845; with CCAGTTAC, 0.14.
With ATCCCAGG the figure was -0.151.
For CCTAAAAA, the “PBM 8-mer E-score” value stood at 0.000513.
In the case of TGGCAAAA it was 0.0112; in that of AAGACGGC, -0.141; in that of GAGTGCAA, 0.0672.
In the case of GAATCTAC it was -0.168.
In the case of CTTAGTTC it was 0.09; in that of ACCGTTCT, -0.0781; in that of CGCAATGC, -0.0897.
In the case of ACCACAGT, the “PBM 8-mer E-score” value is -0.0435.
In the case of ATGTTATG it was 0.152; in that of TCAAAGGA, -0.0398; in that of CAGGACCC, -0.151.
In the case of CGCAGTGA it was -0.186; in that of GTAGATAC, 0.111.
With CACCACTA the figure was 0.0613; with CCAGGACG, -0.236.
For the sequence GCAGGTCC, the “PBM 8-mer E-score” value is -0.225.
Consider CCACGAAC, for which the “PBM 8-mer E-score” value is -0.169.
In the case of ACATGACG it was -0.073; in that of ATTGTAAC, 0.297; in that of AAGTTACG, 0.231.
With GCAGAAAC the figure was -0.0778; with AGATCGCG, -0.153; with GCTAGATA, 0.0558.
In the case of GACACGCA it was -0.158.
With ACTAAAAG, the “PBM 8-mer E-score” value was determined as 0.233.
